Screen size: about 420,000 compounds; about 540 (0.13%) were called active. The shares of active, inactive and inconclusive entries below differ from those in the screen. No stated cut-off is given here; in the data, active means activity change below about -50%; inconclusive means mostly about -30% to -49%; inactive means weaker than that. Where a structure was tested more than once in an assay, its records may differ in their call.
Molecular target: Phosphatidylinositol 4-kinase type 2-alpha (Homo sapiens) (UniProt Q9BTU6)
Assay: qHTS for small molecular inhibitors of PI4K2A;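 further: -100% = wells without enzyme as full effect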
Conditions: purified PI4K2A, ADP-Glo luminescence, 1 h; at 76.9 µM, hits give low values
Procedure, shortened: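 PI4K2A activity was measured by ADP-Glo luminescence: enzyme (4 ug/mL stock) and phosphatidylinositol (1.2 mM stock) in Tris pH 7.5/MgCl2/EGTA/Triton X-100 buffer were reacted with ATP (300 microM stock) for one hour at ambient temperature.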

Chain of UniProt Q9BTU6 (Q9BTU6 whole entry, looked up): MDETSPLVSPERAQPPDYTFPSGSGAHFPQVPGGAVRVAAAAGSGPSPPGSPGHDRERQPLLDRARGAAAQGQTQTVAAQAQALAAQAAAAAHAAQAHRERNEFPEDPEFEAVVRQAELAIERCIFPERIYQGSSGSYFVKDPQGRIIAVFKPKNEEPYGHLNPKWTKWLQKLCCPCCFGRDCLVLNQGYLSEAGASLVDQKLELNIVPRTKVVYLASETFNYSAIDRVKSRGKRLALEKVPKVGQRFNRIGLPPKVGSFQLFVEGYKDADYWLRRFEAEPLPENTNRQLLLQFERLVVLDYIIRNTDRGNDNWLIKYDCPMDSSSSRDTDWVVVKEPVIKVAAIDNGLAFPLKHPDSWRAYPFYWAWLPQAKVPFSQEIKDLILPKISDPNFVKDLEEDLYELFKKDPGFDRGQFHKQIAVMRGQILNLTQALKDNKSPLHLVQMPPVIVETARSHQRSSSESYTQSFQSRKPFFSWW

Structure (SMILES)	activity change, negative = inhibition
O=C(Nc1ncccc1O)c1ccc(OCC2CCCO2)cc1 (stereo unspecified)	inconclusive: -32.7%
Cc1nc(-c2ccc(C(=O)Nc3cccc(F)c3)cc2)cs1	inconclusive: -37.1%
O=S1(=O)CC2c3ccccc3CCN2CN1CCc1ccccc1 (stereo unspecified)	inactive: 0.199%
COc1ccc(-c2cc(C(=O)Oc3ccc(Cl)cc3)c3ccccc3n2)cc1	inconclusive: -34.4%
Cc1[nH]n(-c2ccccc2)c(=O)c1C(c1cccc([N+](=O)[O-])c1)c1c(C)[nH]n(-c2ccccc2)c1=O	inconclusive: -37.4%
O=C(CSc1nc(-c2ccccc2)[nH]c1-c1ccc(F)cc1)NC1CCCC1	inactive: -0.429%
COc1cc([N+](=O)[O-])ccc1N/C=C/C(=O)c1cccs1	inconclusive: -37.5%
O=C(Nc1ccc2c(c1)OCCO2)c1ccccn1	inconclusive: -31.4%
O=C1/C(=C/c2cccc(F)c2)SC(=S)N1NS(=O)(=O)c1ccccc1	inconclusive: -31.5%
COc1ccc(-c2cc3cccc(OC)c3oc2=O)cc1	inconclusive: -31.2%
CCOc1ccc(CCNc2ncnc3onc(C)c23)cc1OCC	inactive: 1.56%
CC1C2=C(CC(C)(C)CC2=O)NC2=C1C(=O)CC(C)(C)C2	inactive: -1.03%
Nc1scc2c(C(=O)N/N=C/c3ccc(Cl)cc3)nn(-c3ccccc3)c(=O)c12	inconclusive: -42.5%
CCOc1cc(C(=O)Nc2cccc3ncccc23)cc(OCC)c1OCC	inactive: -6.31%
CCc1ccc(NC(=O)c2cnn3ccccc23)cc1	inconclusive: -35.3%
CN(C)c1ccnc2sc3c(=O)n(-c4ccccc4)cnc3c12	inconclusive: -48.2%
COc1ccc(S(=O)(=O)NCc2cccn2Cc2cc(C)ccc2C)cc1OC	inactive: -1.21%
O=C(N/N=C/c1ccc(OC(F)F)cc1OC(F)F)c1ccc(Br)cc1	inactive: 5.96%
COc1cc2c(C#N)c(N3CCCC3)nc(N)c2c(N)n1	active: -55.4%
Cc1ccccc1OCC(=O)Nc1ccc(S(=O)(=O)N(Cc2ccccc2)c2ccccc2)cc1	inactive: -0.0959%
O=C(Nc1ccccc1)c1ccc2c(c1)OCCCO2	active: -52.6%
CCn1nc(C)c(CNC(=O)c2cc(COc3cncc(Cl)c3)on2)c1C	inactive: -3%
O=C(N/N=C/c1ccccn1)c1ccc(N/N=C/c2ccccn2)cc1	inactive: 9.99%

Structure (SMILES)	activity change, negative = inhibition
COc1cccc(-c2cn3nc4c(nc3n2)CCCC4)c1	inconclusive: -39.2%
Cc1cccc(OCC(=O)NCC(=O)N=Nc2c(O)[nH]c3ccc([N+](=O)[O-])cc23)c1	inactive: 6.82%
CCOC(=O)C1CCCN(C(=O)c2cc(-c3ccco3)nc3ccccc23)C1 (stereo unspecified)	inconclusive: -32%
Cc1ccc(C)c(S(=O)(=O)Nc2cc(SCC(=O)O)c(O)c3ccccc23)c1	inconclusive: -34.8%
COc1cccc(C(=O)Nc2ccc(C(=O)O)cc2)c1	active: -63.9%
COc1ccc(C=C2C(=O)c3ccccc3C2=O)cc1O	inconclusive: -47.8%
C=CCc1cc(/C=C/c2nc(O)c([N+](=O)[O-])c(=O)[nH]2)cc(OC)c1O	inactive: -25%
Cc1ncoc1C(=O)Nc1ccc2c(c1)OCCO2	inconclusive: -30.4%
COc1c(C)cccc1C(=O)Nc1ccc(N2CCN(C(=O)c3ccccc3C)CC2)cc1	inactive: 8.14%
C=CCNc1nc2c3ccccc3n(C(C)=O)c2s1	inconclusive: -33.8%
Nc1ncnc2c1ncn2C1CCC(CO)C(O)C1 (stereo unspecified)	active: -53.9%
C=CCN1C(=O)/C(=C\c2cccc(OC(=O)c3ccco3)c2)SC1=S	inactive: 7.65%
CCOC(=O)c1c(C)oc2ccc(N(C(=O)Oc3ccccc3)S(=O)(=O)c3ccccc3)cc12	inactive: -1.05%
Cc1ccc(-c2nc3ccccc3n2C)o1	inconclusive: -40.4%
O=C(NCCN1CCCCC1)Nc1ccccc1	inactive: 3.31%
O=C(c1ccco1)N1CCN(Cc2ccc(Cl)cc2)CC1	active: -64.7%
COc1cccc(NC(=O)Nc2nnc(COCCO)s2)c1	inconclusive: -32.6%
c1ccc(CCCCN2CCN=C2Nc2ccccc2)cc1	inactive: -3.18%
O=C(O)c1cccc(-n2cccc2/C=C2/NC(=O)N(c3ccc(Cl)cc3)C2=O)c1	inconclusive: -40.5%
S=C(Nc1ccc2nc(-c3ccccn3)c(-c3ccccn3)nc2c1)N1CCCCC1	inconclusive: -42.5%
Cc1[nH]c(=O)[nH]c(=O)c1/C=N/NC(=O)[C@@H](N)CC(C)C	active: -60%
Cn1c(NNC(=O)c2c(F)cccc2F)cc(=O)n(C)c1=O	inconclusive: -47.6%
Cc1cccc(-n2ncc3c(N4CCOCC4)ncnc32)c1	inconclusive: -35.7%

Structure (SMILES)	activity change, negative = inhibition
CN(C(=O)c1ccc(NC(=O)c2ccco2)cc1)c1ccccc1	inconclusive: -35.2%
CN(C)c1ccc(NC(=O)CC(NCc2ccccn2)C(=O)O)cc1 (stereo unspecified)	inconclusive: -30.2%
CN(C)c1ccc(-c2[nH][nH]c(=O)c2NC(=O)c2ccc3ccccc3n2)cc1	active: -65.1%
O=C(Cc1ccc(-n2c(=S)[nH]c3ccccc3c2=O)cc1)N1CCC(N2CCCCC2)CC1	inactive: 0.7%
O=S(=O)(Nc1cc2nc3ccccc3nc2n1Cc1ccccc1)c1ccc(Cl)cc1	inconclusive: -31.1%
FC(F)(F)C1=Nc2cccc3cccc(c23)N1	active: -64.3%
Cc1cccc(C)c1NC(=O)CN(C1CCCCC1)S(C)(=O)=O	inconclusive: -49.1%
COc1ccc(C(=O)C2CCN(C(=O)c3ccc(OC)cc3)CC2)cc1	inactive: 2.12%
COC(=O)c1ccc(NC(=O)Nc2ccccc2F)cc1	inconclusive: -42.8%
O=[N+]([O-])c1cc([N+](=O)[O-])c2nonc2c1Nc1ccc(O)cc1	inconclusive: -30.3%
O=C(/C=C\Nc1ccc2c(c1)OCO2)c1ccccn1	active: -54.6%
Cc1nc(-c2ccc(S(=O)(=O)N3CCN(Cc4ccccc4)CC3)s2)cs1	inactive: 0.946%
O=C1/C(=C/c2ccc(O)cc2)COc2ccccc21	inconclusive: -43%
O=C(N/N=C/c1ccc(-c2ccc(Cl)c(C(=O)O)c2)o1)c1cc2c(ccc3ccccc32)o1	inactive: -5.68%
N/C(=N\OC(=O)c1ccc(Cl)cc1)c1ccccn1	active: -69.5%
COc1ccccc1-n1c(=O)[nH]c2c(C(N)=O)nc(-c3cccnc3)nc21	inconclusive: -35.5%
CC1=NN(C(N)=S)C(=O)C1N=Nc1c(Cl)cc([N+](=O)[O-])cc1Cl (stereo unspecified)	inactive: 1.16%
Cc1cccc(CNC(=O)c2ccc(NC(=O)N3CC(C)Sc4ccccc43)cc2)c1 (stereo unspecified)	inactive: -2.16%
Cc1cccc(NC(=O)CSC(N)=O)c1C	inconclusive: -32.1%
Nc1ccc(N2CCCCC2)c2nonc12	active: -53.6%
CC1(C)N([O-])C2=C(c3ccccc3C2=O)[N+](=O)C1(C)C	inconclusive: -42.2%
NC(=S)N/N=C/c1ccc(/C=N/NC(N)=S)cc1	inactive: -21.4%
CCOC(=O)c1c(NC(=O)c2cc3nc(-c4ccc(OC)cc4)cc(C(F)(F)F)n3n2)sc2c1CCC(C)C2 (stereo unspecified)	inactive: 8.43%

Structure (SMILES)	activity change, negative = inhibition
COC(=O)c1ccc(NC(=O)c2cccc(OC)c2)cc1	active: -50.5%
CC1(C)Cc2c(sc3ncn4c(=S)[nH]nc4c23)CO1	inactive: -1.38%
COc1ccc(CCNC(=O)CCc2c(C)c3cc4c(C)c(C)oc4cc3oc2=O)cc1OC	inactive: -10.7%
Cc1ccc(N=Cc2c(C)[nH]n(-c3nc4ccccc4[nH]3)c2=O)cc1	inactive: -30%
O=C(COc1ccc2c(c1)OCO2)Nc1nccs1	inconclusive: -46.2%
CC1CCCN(C(=O)c2cc3ccc4cccnc4c3[nH]2)C1 (stereo unspecified)	inconclusive: -32.4%
Cc1ccc(NC2=C/C(=N\S(=O)(=O)c3cccs3)c3ccccc3C2=O)c(C)c1	inconclusive: -30%
Cc1nn(-c2ccccc2)c2c1C(c1ccc(O)c(O)c1)N1C(=N2)C(Nc2ccccc2)=Nc2ccccc21 (stereo unspecified)	inactive: -0.351%
CC(C)n1c(=O)c2c(O)cc(=O)oc2c2ccccc21	inactive: -6.45%
Cc1ccccc1C(=O)N1CC/C(=N\OS(=O)(=O)O)c2ccc(Cl)cc21	inactive: -2.37%
COc1cc(-c2nnc(SCC(=O)Nc3ccc4c(c3)OCCO4)o2)cc(OC)c1OC	active: -55.5%
Cc1cccc(NC(=O)c2ccc(NCCc3ccccc3)c([N+](=O)[O-])c2)c1	inactive: -2.13%
O=C1C=CC(=O)N1c1ccccc1N1C(=O)C=CC1=O	inconclusive: -42%
COc1ccc2cc3cc(C(=O)Nc4ccc5c(c4)OCCO5)oc3nc2c1	inactive: -8.95%
O=C(CSc1nnc(-c2ccco2)n1-c1ccc(Cl)cc1)Nc1ccc(S(=O)(=O)Nc2nccs2)cc1	inactive: -5.86%
S=C(Nc1ccc2nsnc2c1)NC1CCCCC1	inconclusive: -31.8%
O=C(Cn1cnc2sc(-c3ccccc3)cc2c1=O)NCc1ccco1	inconclusive: -36.4%
Cc1ccc(NC(=O)CN(C)S(=O)(=O)c2cccc3nsnc23)cc1Cl	inactive: -7.03%
O=C(NC(=S)NNC(=O)c1ccc(Cl)cc1Cl)c1cccnc1	inactive: -5.03%
CCn1c(CSCc2ccc(C)cc2)nnc1SCC(=O)N1CCN(c2ccccc2)CC1	inactive: -17.8%
O=C1CC(=O)N(Cc2ccco2)C(=S)N1	inconclusive: -45.4%
Cc1cccc(-c2cc3nc4c(c(N5CCOCC5)n3n2)CCCC4)c1	inactive: -4.89%

Source: PubChem BioAssay AID1346378 (National Center for Advancing Translational Sciences (NCATS), 2018)
